Laboratory results taken from the supplement of paper PMC9151546.
Many values rest on one well or one pass, so single values are uncertain.

Legend:
CHO-K1 [1] = experiment: relative survival (nuclei to bead ratio vs DMSO control) (% of vehicle control); higher = more surviving cells
CHO-K1 [2] = experiment: micronucleus frequency (% of nucleated events); higher = more micronuclei (genotoxic)
CHO-K1 [3] = experiment: hypodiploid nuclei frequency (% of nucleated events); higher = more hypodiploid events (aneugenic)
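For hypodiploid nuclei frequency (% of nucleated events) in this document: hypodiploid nuclei gated on a flow cytometer with 488 nm excitation after SYTOX Green staining, cultures at 37 °C, positive controls vinblastine without S9 and cyclophosphamide with S9.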
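For micronucleus frequency (% of nucleated events) in this document: cells lysed with nuclei stained by SYTOX Green, then micronucleus-gated events counted against nucleated events by flow cytometry with 488 nm excitation.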
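For relative survival (nuclei to bead ratio vs DMSO control) in this document: Lysed-cell nuclei stained with SYTOX Green and counted against counting beads by flow cytometry at 488 nm excitation, with vinblastine (no S9) and cyclophosphamide (plus S9) as positive controls.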

Oc1cccc(O)c1 [Resorcinol]
Conditions	hypodiploid nuclei frequency, CHO-K1 [3] [%]	micronucleus frequency, CHO-K1 [2] [%]	relative survival, CHO-K1 [1]
concentration: 4.5 (µM), S9 metabolic activation: with S9, exposure time: 3-4 hours	0.16	1.5	63.6
concentration: 4.5 (µM), S9 metabolic activation: without S9, exposure time: 24 hours	0.44	1.36	118
concentration: 5.63 (µM), S9 metabolic activation: with S9, exposure time: 3-4 hours	0.2	1.4	71.8
concentration: 5.63 (µM), S9 metabolic activation: without S9, exposure time: 24 hours	0.54	1.44	90.6
concentration: 7.04 (µM), S9 metabolic activation: with S9, exposure time: 3-4 hours	0.28	1.48	102
concentration: 7.04 (µM), S9 metabolic activation: without S9, exposure time: 24 hours	0.52	1.22	97.6
concentration: 8.8 (µM), S9 metabolic activation: with S9, exposure time: 3-4 hours	0.22	1.08	101
concentration: 8.8 (µM), S9 metabolic activation: without S9, exposure time: 24 hours	0.58	0.9	107
concentration: 11 (µM), S9 metabolic activation: with S9, exposure time: 3-4 hours	0.26	1.38	82.8
concentration: 11 (µM), S9 metabolic activation: without S9, exposure time: 24 hours	0.7	1.64	88.2
concentration: 13.7 (µM), S9 metabolic activation: with S9, exposure time: 3-4 hours	0.34	1.48	91.7
concentration: 13.7 (µM), S9 metabolic activation: without S9, exposure time: 24 hours	0.86	2.76	85.1
concentration: 17.2 (µM), S9 metabolic activation: with S9, exposure time: 3-4 hours	0.2	2.02	110
concentration: 17.2 (µM), S9 metabolic activation: without S9, exposure time: 24 hours	0.9	1.98	81.2
concentration: 21.5 (µM), S9 metabolic activation: with S9, exposure time: 3-4 hours	0.16	1.92	122
concentration: 21.5 (µM), S9 metabolic activation: without S9, exposure time: 24 hours	0.76	2.18	86.5
concentration: 26.8 (µM), S9 metabolic activation: with S9, exposure time: 3-4 hours	0.44	2	94.5
concentration: 26.8 (µM), S9 metabolic activation: without S9, exposure time: 24 hours	0.56	2	72.7
concentration: 33.6 (µM), S9 metabolic activation: with S9, exposure time: 3-4 hours	0.2	1.52	83.7
concentration: 33.6 (µM), S9 metabolic activation: without S9, exposure time: 24 hours	0.5	2.82	73.5
concentration: 41.9 (µM), S9 metabolic activation: with S9, exposure time: 3-4 hours	0.32	1.58	53
concentration: 41.9 (µM), S9 metabolic activation: without S9, exposure time: 24 hours	0.36	1.74	81.9
concentration: 52.4 (µM), S9 metabolic activation: with S9, exposure time: 3-4 hours	0.16	0.96	60.6
concentration: 52.4 (µM), S9 metabolic activation: without S9, exposure time: 24 hours	0.58	2.1	58.7
concentration: 65.5 (µM), S9 metabolic activation: with S9, exposure time: 3-4 hours	0.24	1.02	69.2
concentration: 65.5 (µM), S9 metabolic activation: without S9, exposure time: 24 hours	0.44	1.42	65.7
concentration: 81.9 (µM), S9 metabolic activation: with S9, exposure time: 3-4 hours	0.32	1.4	62
concentration: 81.9 (µM), S9 metabolic activation: without S9, exposure time: 24 hours	0.58	1.08	53.4
concentration: 102 (µM), S9 metabolic activation: with S9, exposure time: 3-4 hours	0.34	1.4	61.8
concentration: 102 (µM), S9 metabolic activation: without S9, exposure time: 24 hours	0.44	1.9	56.7
concentration: 128 (µM), S9 metabolic activation: with S9, exposure time: 3-4 hours	0.38	1.66	77
concentration: 128 (µM), S9 metabolic activation: without S9, exposure time: 24 hours	0.6	2.56	56.6
concentration: 160 (µM), S9 metabolic activation: with S9, exposure time: 3-4 hours	0.32	1.3	81.4
concentration: 160 (µM), S9 metabolic activation: without S9, exposure time: 24 hours	1.04	2.6	68.6
concentration: 200 (µM), S9 metabolic activation: with S9, exposure time: 3-4 hours	0.16	1.82	84.1
concentration: 200 (µM), S9 metabolic activation: without S9, exposure time: 24 hours	0.94	2.66	72.7

CN(C)C(=S)S [Sodium dimethyldithiocarbamate]
Conditions	hypodiploid nuclei frequency, CHO-K1 [3] [%]	micronucleus frequency, CHO-K1 [2] [%]	relative survival, CHO-K1 [1]
concentration: 4.5 (µM), S9 metabolic activation: with S9, exposure time: 3-4 hours	0.3	0.84	107
concentration: 4.5 (µM), S9 metabolic activation: without S9, exposure time: 24 hours	0.88	1.58	65.4
concentration: 5.63 (µM), S9 metabolic activation: with S9, exposure time: 3-4 hours	0.16	0.66	94.6
concentration: 5.63 (µM), S9 metabolic activation: without S9, exposure time: 24 hours	0.64	2.02	71.2
concentration: 7.04 (µM), S9 metabolic activation: with S9, exposure time: 3-4 hours	0.14	0.68	88.4
concentration: 7.04 (µM), S9 metabolic activation: without S9, exposure time: 24 hours	0.98	2.52	55.9
concentration: 8.8 (µM), S9 metabolic activation: with S9, exposure time: 3-4 hours	0.18	0.48	104
concentration: 8.8 (µM), S9 metabolic activation: without S9, exposure time: 24 hours	0.6	1.6	59.6
concentration: 11 (µM), S9 metabolic activation: with S9, exposure time: 3-4 hours	0.14	0.96	98.3
concentration: 11 (µM), S9 metabolic activation: without S9, exposure time: 24 hours	0.7	1.32	48.7
concentration: 13.7 (µM), S9 metabolic activation: with S9, exposure time: 3-4 hours	0.1	0.86	135
concentration: 13.7 (µM), S9 metabolic activation: without S9, exposure time: 24 hours	0.4	1.62	59.9
concentration: 17.2 (µM), S9 metabolic activation: with S9, exposure time: 3-4 hours	0.24	1.16	90.7
concentration: 17.2 (µM), S9 metabolic activation: without S9, exposure time: 24 hours	0.78	1.52	58.5
concentration: 21.5 (µM), S9 metabolic activation: with S9, exposure time: 3-4 hours	0.18	0.82	92.3
concentration: 21.5 (µM), S9 metabolic activation: without S9, exposure time: 24 hours	–	–	38.9
concentration: 26.8 (µM), S9 metabolic activation: with S9, exposure time: 3-4 hours	0.08	0.98	66.3
concentration: 26.8 (µM), S9 metabolic activation: without S9, exposure time: 24 hours	0.26	1.36	45.3
concentration: 33.6 (µM), S9 metabolic activation: with S9, exposure time: 3-4 hours	0.26	0.84	85.4
concentration: 33.6 (µM), S9 metabolic activation: without S9, exposure time: 24 hours	0.36	0.97	44
concentration: 41.9 (µM), S9 metabolic activation: with S9, exposure time: 3-4 hours	0.18	1.16	76.8
concentration: 41.9 (µM), S9 metabolic activation: without S9, exposure time: 24 hours	0.35	1.32	44.2
concentration: 52.4 (µM), S9 metabolic activation: with S9, exposure time: 3-4 hours	0.14	0.86	89.3
concentration: 52.4 (µM), S9 metabolic activation: without S9, exposure time: 24 hours	–	–	39.8
concentration: 65.5 (µM), S9 metabolic activation: with S9, exposure time: 3-4 hours	0.1	0.84	70
concentration: 65.5 (µM), S9 metabolic activation: without S9, exposure time: 24 hours	–	–	31.4
concentration: 81.9 (µM), S9 metabolic activation: with S9, exposure time: 3-4 hours	0.2	0.8	83.3
concentration: 81.9 (µM), S9 metabolic activation: without S9, exposure time: 24 hours	0.23	1	43.3
concentration: 102 (µM), S9 metabolic activation: with S9, exposure time: 3-4 hours	0.18	0.84	86.6
concentration: 102 (µM), S9 metabolic activation: without S9, exposure time: 24 hours	0.32	0.89	40.7
concentration: 128 (µM), S9 metabolic activation: with S9, exposure time: 3-4 hours	0.22	0.96	86.8
concentration: 128 (µM), S9 metabolic activation: without S9, exposure time: 24 hours	–	–	35.7
concentration: 160 (µM), S9 metabolic activation: with S9, exposure time: 3-4 hours	0.14	1.06	64.6
concentration: 160 (µM), S9 metabolic activation: without S9, exposure time: 24 hours	0.22	0.72	40.7
concentration: 200 (µM), S9 metabolic activation: with S9, exposure time: 3-4 hours	0.27	1.68	43.5
concentration: 200 (µM), S9 metabolic activation: without S9, exposure time: 24 hours	–	–	24.3

O=NO [Sodium nitrite]
Conditions	hypodiploid nuclei frequency, CHO-K1 [3] [%]	micronucleus frequency, CHO-K1 [2] [%]	relative survival, CHO-K1 [1]
concentration: 4.57 (µM), S9 metabolic activation: with S9, exposure time: 3-4 hours	0.22	1.22	89.9
concentration: 4.57 (µM), S9 metabolic activation: without S9, exposure time: 24 hours	0.68	1.1	149
concentration: 5.71 (µM), S9 metabolic activation: with S9, exposure time: 3-4 hours	0.24	1.32	83.5
concentration: 5.71 (µM), S9 metabolic activation: without S9, exposure time: 24 hours	0.9	1.22	134
concentration: 7.14 (µM), S9 metabolic activation: with S9, exposure time: 3-4 hours	0.12	1.42	87.4
concentration: 7.14 (µM), S9 metabolic activation: without S9, exposure time: 24 hours	0.7	1.32	108
concentration: 8.93 (µM), S9 metabolic activation: with S9, exposure time: 3-4 hours	0.18	1.3	88.1
concentration: 8.93 (µM), S9 metabolic activation: without S9, exposure time: 24 hours	0.78	1.74	138
concentration: 11.2 (µM), S9 metabolic activation: with S9, exposure time: 3-4 hours	0.28	1.14	91.7
concentration: 11.2 (µM), S9 metabolic activation: without S9, exposure time: 24 hours	0.64	1.7	130
concentration: 14 (µM), S9 metabolic activation: with S9, exposure time: 3-4 hours	0.36	1.34	86.4
concentration: 14 (µM), S9 metabolic activation: without S9, exposure time: 24 hours	0.62	1.9	126
concentration: 17.4 (µM), S9 metabolic activation: with S9, exposure time: 3-4 hours	0.28	1.38	89.2
concentration: 17.4 (µM), S9 metabolic activation: without S9, exposure time: 24 hours	0.7	2.16	120
concentration: 21.8 (µM), S9 metabolic activation: with S9, exposure time: 3-4 hours	0.22	1.24	91
concentration: 21.8 (µM), S9 metabolic activation: without S9, exposure time: 24 hours	0.56	1.92	113
concentration: 27.2 (µM), S9 metabolic activation: with S9, exposure time: 3-4 hours	0.1	1	94.8
concentration: 27.2 (µM), S9 metabolic activation: without S9, exposure time: 24 hours	0.48	1.08	105
concentration: 34.1 (µM), S9 metabolic activation: with S9, exposure time: 3-4 hours	0.16	0.7	106
concentration: 34.1 (µM), S9 metabolic activation: without S9, exposure time: 24 hours	0.76	1.16	117
concentration: 42.6 (µM), S9 metabolic activation: with S9, exposure time: 3-4 hours	0.36	1.7	103
concentration: 42.6 (µM), S9 metabolic activation: without S9, exposure time: 24 hours	0.76	1.56	112
concentration: 53.2 (µM), S9 metabolic activation: with S9, exposure time: 3-4 hours	0.22	1.98	103
concentration: 53.2 (µM), S9 metabolic activation: without S9, exposure time: 24 hours	0.98	2.04	105
concentration: 66.5 (µM), S9 metabolic activation: with S9, exposure time: 3-4 hours	0.38	2.44	88.5
concentration: 66.5 (µM), S9 metabolic activation: without S9, exposure time: 24 hours	0.84	1.68	107
concentration: 83.1 (µM), S9 metabolic activation: with S9, exposure time: 3-4 hours	0.2	1.62	116
concentration: 83.1 (µM), S9 metabolic activation: without S9, exposure time: 24 hours	1.06	2.22	114
concentration: 104 (µM), S9 metabolic activation: with S9, exposure time: 3-4 hours	0.14	2.5	86.1
concentration: 104 (µM), S9 metabolic activation: without S9, exposure time: 24 hours	1.54	2.48	114
concentration: 130 (µM), S9 metabolic activation: with S9, exposure time: 3-4 hours	0.26	1.4	84.5
concentration: 130 (µM), S9 metabolic activation: without S9, exposure time: 24 hours	1.66	2.28	108
concentration: 162 (µM), S9 metabolic activation: with S9, exposure time: 3-4 hours	0.12	1.92	91.7
concentration: 162 (µM), S9 metabolic activation: without S9, exposure time: 24 hours	0.9	2.7	107
concentration: 203 (µM), S9 metabolic activation: with S9, exposure time: 3-4 hours	0.24	1.68	94.4
concentration: 203 (µM), S9 metabolic activation: without S9, exposure time: 24 hours	1.5	2.72	97.6
